Reference: the RNAGym collection of RNA variant scans (doi:10.1093/nar/gkz1192)
The source gives no read counts; variants with many changes may rest on few reads.

B1: CPEB3 Ribozyme (parent)
chain: UAACAGGGGGCCACAGCAGAAGCGUUCACGUCGCAGCCCCUGUCAGAUUCUGGUGAAUCUGCGAAUUCUGCUGUAUAUCUC

Variants of: B1
Assay: self-cleavage, relative activity (ratio to wild type); higher = more cleavage; in vitro, sequencing
Summary of the method: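 Libraries of CPEB3 self-cleaving ribozyme mutants came from rounds of error-prone PCR and carried barcodes, which DNA sequencing matched to variants. In vitro transcription used T7 RNA polymerase at 37°C for 5 hours, with a further 15 min in DNase I before EDTA stopped the reaction; the ribozymes cleaved during both steps. The RNA was reverse transcribed with template switching and sequenced on Illumina. Relative activity is the cleaved/total read fraction of a variant divided by that of the unmutated ribozyme, averaged over three batches with at least 5 reads.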

| Variant | self-cleavage |
| --- | --- |
| A5G C29U U41C U51A U69A U76C | 0.13 |
| A5G C32U G63C U80C | 0.41 |
| A5G C34G C79U U80G | 0.13 |
| A5G C34G U43C A56U | 0.13 |
| A5G C37A C39A U72C U74C | 0.45 |
| A5G C38U A56U U66C | 0.1 |
| A5G C39A U43C A56G | 0.23 |
| A5G C39A U43C U48G A57C | 0.37 |
| A5G C39A U54G U80C | 0.27 |
| A5G C39U U51C U78A | 0.27 |
| A5G C39U U60C | 0.32 |
| A5G C40A A45G U60C | 0.21 |
| A5G C40G U48C | 0.29 |
| A5G C40U A47G | 0.5 |
| A5G C40U A56G | 0.53 |
| A5G C40U U49C U54C G55U | 0.34 |
| A5G C44A U69A U74G | 0.56 |
| A5G C50U U66C | 0.28 |
| A5G G6A A18U | 0.34 |
| A5G G6A A64G | 0.23 |
| A5G G6A C11U U31A A56G A64U U72G | 0.05 |
| A5G G6A G9A U25A U43A | 0.08 |
| A5G G6A U43C | 0.4 |
| A5G G6A U78C | 0.11 |

| Variant | self-cleavage |
| --- | --- |
| A5G G6U U60A | 0.29 |
| A5G G7A C37A U72C | 0.22 |
| A5G G7A U31G U60A U80C | 0.07 |
| A5G G7U G9C U25C U41C | 0.45 |
| A5G G7U G10A A15U G19U | 0.25 |
| A5G G7U U41C A47G U69A G73A | 0.05 |
| A5G G8A A15G A28U U31A U51C | 0.32 |
| A5G G8A A15G A28U U51C | 0.25 |
| A5G G8A A15G U26C A28U U41G | 0.42 |
| A5G G8A C14U | 0.47 |
| A5G G8A G10A A13C U69A | 0.11 |
| A5G G8A U43C U51A C68U | 0.05 |
| A5G G8A U48C A64U | 0.07 |
| A5G G8U A20G A77U | 0.35 |
| A5G G9A A13G A28U U66C U69C C71U | 0.03 |
| A5G G9A A13U | 0.41 |
| A5G G9A A35G A56U U58C A65G | 0.1 |
| A5G G9A A35G U41A | 0.11 |
| A5G G9A C39A G42U U51A U66C | 0.06 |
| A5G G9A G10A G24A U25A U51G | 0.08 |
| A5G G9A G22U U41A | 0.31 |
| A5G G9A U51A U72A | 0.1 |
| A5G G9A U54C A57G U60A | 0.09 |
| A5G G9A U69C | 0.14 |

| Variant | self-cleavage |
| --- | --- |
| A5G G9C A15G U41C U76A | 0.85 |
| A5G G9C A20U U49C U51A A77G | 0.23 |
| A5G G9C A21G A47U G53U U58C | 0.22 |
| A5G G9C C40U U54A U80C | 0.4 |
| A5G G9U A13G A21G C40A A47G U60C | 0.09 |
| A5G G9U A13U A15G | 0.42 |
| A5G G9U A45G | 0.27 |
| A5G G10A A20G | 0.46 |
| A5G G10A C27U A64G U78C | 0.09 |
| A5G G10A U31A A77C | 0.13 |
| A5G G10A U74A C79U | 0.81 |
| A5G G10A U78C | 0.15 |
| A5G G10C A13G A20G A47U U48C A65U | 0.1 |
| A5G G10C A35G C40A A47C U74C | 0.08 |
| A5G G10U U80C | 0.69 |
| A5G G16A A20G A28U U41C U67C G70C | 0.13 |
| A5G G19A A45C | 0.15 |
| A5G G19C U43C U54A U58G C62U U80C | 0.18 |
| A5G G19U U25G | 0.33 |
| A5G G24A A56U U72A | 0.16 |
| A5G G24U A35G U72C U80C | 0.54 |
| A5G G24U U25A A28U A57G U78C | 0.08 |
| A5G G24U U66C | 0.09 |
| A5G G30U C39A U51A | 0.2 |

| Variant | self-cleavage |
| --- | --- |
| A5G G33A A45G U69C G70C | 0.1 |
| A5G G33A A65U | 0.25 |
| A5G G33A U66C A75G | 0.07 |
| A5G G42A C44G U72C | 0.62 |
| A5G G46U G61C | 0.25 |
| A5G G55U U76C A77G | 0.43 |
| A5G G61A A77U | 0.23 |
| A5G U25A C34A A45G A75G | 0.19 |
| A5G U25A U41A U43A U49C U72C U78C | 0.1 |
| A5G U25A U72C U74C | 0.05 |
| A5G U25C A35G A56G | 0.47 |
| A5G U25C A45G | 0.39 |
| A5G U25C A45G U51A U60C A64G U80A | 0.17 |
| A5G U25C A56G U60C U67C U72A | 0.77 |
| A5G U25C A64G | 0.3 |
| A5G U25C C27A U31A A35G A45G A57G | 0.56 |
| A5G U25C C32A C37A U48C U69C | 0.07 |
| A5G U25C C44A U49C U69C | 0.14 |
| A5G U25C U26A C27U | 0.28 |
| A5G U25C U26C C38A | 0.09 |
| A5G U25C U26C G36C U51A C68A | 0.03 |
| A5G U25C U41A U51A A64G U80C | 0.08 |
| A5G U25C U41C A75U | 0.36 |
| A5G U25C U43A U51G | 0.34 |

| Variant | self-cleavage |
| --- | --- |
| A5G U25C U60C | 0.35 |
| A5G U25C U66C | 0.24 |
| A5G U25C U69A | 0.21 |
| A5G U25C U74C | 0.35 |
| A5G U25G A45G A64G | 0.34 |
| A5G U26A A35G C79A | 1.15 |
| A5G U26A A56G C62G | 0.09 |
| A5G U26A A57G | 0.23 |
| A5G U26A U31C | 0.41 |
| A5G U26A U41C G52U | 0.25 |
| A5G U26A U51A U66C | 0.28 |
| A5G U26A U54A U69C A77C U78A | 0.29 |
| A5G U26A U69C | 0.17 |
| A5G U26C A28G U49C U51C U67A | 0 |
| A5G U26C A28U U66C | 0.26 |
| A5G U26C A45U C81G | 0.39 |
| A5G U26C A57U A64G | 0.47 |
| A5G U26C C27U A77U | 0.08 |
| A5G U26C C29U U31C C37U A57G U67A | 0.06 |
| A5G U26C G30A U41C A65G U66C C68U | 0.08 |
| A5G U26C G46A A47G U69C | 0.42 |
| A5G U26C U41A A56G | 0.35 |
| A5G U26C U43A A57U U58C | 0.47 |
| A5G U26C U49C U72A | 0.08 |

| Variant | self-cleavage |
| --- | --- |
| A5G U26C U51C U60A A65U | 0.31 |
| A5G U26C U69C U72A U80G | 0.07 |
| A5G U26C U69C U74C | 0.2 |
| A5G U26G A56G U66A U69A | 0.02 |
| A5G U31A A57G | 0.2 |
| A5G U31A U67A U69A | 0.12 |
| A5G U31C A35G G46A U51C A56G | 0.13 |
| A5G U31C C34U U49C | 0.29 |
| A5G U31C C38U C44A A65G U80G | 0.06 |
| A5G U31C U43C U48C | 0.47 |
| A5G U31C U54A U80A | 0.65 |
| A5G U31G G33U A35C U76G | 0.23 |
| A5G U41A A45G A64U U69C | 0.31 |
| A5G U41A A47G A75G | 0.27 |
| A5G U41A A47G U49C A56U | 0.12 |
| A5G U41A G53A U69A | 0.28 |
| A5G U41A U43G U49C | 0.45 |
| A5G U41A U48C A64G U72A U80C | 0.1 |
| A5G U41A U67C U76C | 0.05 |
| A5G U41C U43A A57G U66C U72A | 0.43 |
| A5G U41C U43C A45U A64U | 0.07 |
| A5G U41C U54C G70A U72A A77G | 0.02 |
| A5G U43A U51A A64G U72A | 0.44 |
| A5G U43A U60C | 0.35 |

| Variant | self-cleavage |
| --- | --- |
| A5G U43A U69C U78C | 0.45 |
| A5G U43C A65G G70A | 0.22 |
| A5G U43C C59U U80C | 0.39 |
| A5G U43C U49C U54G G63A A65U | 0.2 |
| A5G U43C U51C U60A | 0.39 |
| A5G U43C U54C A57G U69C | 0.26 |
| A5G U43C U58C | 0.29 |
| A5G U43C U66A A75U | 0.07 |
| A5G U43C U74C U78C | 0.36 |
| A5G U48A A56G | 0.3 |
| A5G U48A A57U | 0.97 |
| A5G U48C A56U | 0.21 |
| A5G U48C A57G U72C | 0.81 |
| A5G U48C A65U | 0.31 |
| A5G U48C A75G | 0.26 |
| A5G U48C U51A | 0.43 |
| A5G U48C U67A U78C | 0.17 |
| A5G U49A U69C | 0.35 |
| A5G U49C U51A G70A | 0.46 |
| A5G U51A A64U U69C U72C U78A | 0.37 |
| A5G U51A U54C U76C | 0.59 |
| A5G U51A U58C G61C | 0.12 |
| A5G U51C U69C U80C | 0.34 |
